Results reported in publication PMC4336329 (PLoS ONE, 2015).
Out of some 310,000 compounds screened, about 2,200 (0.71%) showed an effect of 50% or more. The effect is printed as a negative number. The list shows a part of the results.

molecular target: human ether-à-go-go-related gene (hERG) potassium channel (human, UniProt Q12809); assay: primary screen, population patch clamp on CHO cells stably expressing hERG
Sequence (Q12809 whole entry, looked up): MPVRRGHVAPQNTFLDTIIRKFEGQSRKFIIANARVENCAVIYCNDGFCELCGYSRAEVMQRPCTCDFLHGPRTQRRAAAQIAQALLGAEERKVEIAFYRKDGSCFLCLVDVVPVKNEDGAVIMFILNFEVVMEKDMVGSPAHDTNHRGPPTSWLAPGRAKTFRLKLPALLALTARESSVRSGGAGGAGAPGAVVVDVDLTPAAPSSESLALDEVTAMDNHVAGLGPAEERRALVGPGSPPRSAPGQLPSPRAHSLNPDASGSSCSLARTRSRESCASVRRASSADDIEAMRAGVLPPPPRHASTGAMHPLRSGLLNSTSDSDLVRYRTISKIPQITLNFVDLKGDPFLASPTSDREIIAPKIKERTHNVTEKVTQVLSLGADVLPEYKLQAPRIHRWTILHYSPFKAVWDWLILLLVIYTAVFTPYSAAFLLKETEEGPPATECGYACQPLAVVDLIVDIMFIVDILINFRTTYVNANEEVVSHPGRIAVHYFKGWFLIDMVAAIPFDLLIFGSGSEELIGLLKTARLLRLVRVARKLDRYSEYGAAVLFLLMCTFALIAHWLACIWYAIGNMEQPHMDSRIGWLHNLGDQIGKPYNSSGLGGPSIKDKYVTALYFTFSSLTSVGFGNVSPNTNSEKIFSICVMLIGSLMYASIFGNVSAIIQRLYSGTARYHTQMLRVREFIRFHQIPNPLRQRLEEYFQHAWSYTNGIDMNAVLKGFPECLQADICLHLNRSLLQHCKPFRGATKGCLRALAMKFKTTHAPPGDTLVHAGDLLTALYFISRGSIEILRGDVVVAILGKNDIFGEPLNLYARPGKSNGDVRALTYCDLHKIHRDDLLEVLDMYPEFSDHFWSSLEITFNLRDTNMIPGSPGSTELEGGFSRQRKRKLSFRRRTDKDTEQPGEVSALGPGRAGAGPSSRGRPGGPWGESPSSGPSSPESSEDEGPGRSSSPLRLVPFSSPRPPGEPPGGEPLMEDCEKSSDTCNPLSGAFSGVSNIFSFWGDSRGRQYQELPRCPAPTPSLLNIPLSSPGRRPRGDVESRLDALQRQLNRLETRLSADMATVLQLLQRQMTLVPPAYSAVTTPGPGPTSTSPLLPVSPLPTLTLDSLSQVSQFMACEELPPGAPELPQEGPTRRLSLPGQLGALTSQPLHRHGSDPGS

| SMILES | hERG current change (%, negative = inhibition) at 1uM [%] |
| --- | --- |
| OCCc1ccccc1 | 15.8 |
| O=c1cc(-c2ccccc2)nc(Cc2c(Cl)cccc2Cl)[nH]1 | 5.38 |
| C/C(=N\NC(=O)c1cccc(S(=O)(=O)N2CCOCC2)c1)c1ccc(C#N)cc1 | 4.62 |
| C=CCOc1ccc(C(=O)Nc2ccccc2C(=O)NCc2cccnc2)cc1 | 11.4 |
| CCCCn1c(SCc2ccc(Cl)cc2)nc2c1c(=O)[nH]c(=O)n2C | -15.4 |
| Cc1cc(=O)oc2c(C)c(OCC(=O)N3CCC(C(=O)O)CC3)ccc12 | 5.63 |
| COc1ccc(-c2c(C#N)c(N)nc3c2c(=O)n(C)c(=O)n3C)cc1Cl | -3.66 |
| S=C1NC[C@H](CC2CCCCC2)N1CCCCC1CCCCC1 | 13 |
| CC(CCc1ccccc1)NC(=O)CN1C(=O)NC2(CCCCC2C)C1=O (centres unmarked) | 11.3 |
| CNS(=O)(=O)c1cccc(C(=O)NC2CCCc3ccccc32)c1 (centres unmarked) | 1.45 |
| O=C(CSc1nccn1-c1ccc(Cl)cc1)N1CCCc2ccccc21 | 15.5 |
| Cc1ccc(CCNC(=O)C2CCN(S(=O)(=O)N3CCCCC3)CC2)cc1 | 15.9 |
| COc1ccc(C(=O)COC(=O)c2ccc3c(c2)OCO3)c(OC)c1 | -0.032 |
| O=C1NC(CCc2ccccc2)C(=O)N1Cc1ccccc1Cl (centres unmarked) | 14.8 |
| Cc1ccc(NCc2nnc3n2CCCCC3)c(C)c1 | 11.6 |
| Cc1ccccc1N1C(=O)c2ccccc2NC1c1ccncc1 (centres unmarked) | 13 |
| O=C(CCN1CCCCC1)c1ccc2c(c1)OCO2 | 10.3 |
| CCOC(=O)c1[nH]c2ccc(F)cc2c1NC(=O)c1cc(OC)c(OC)c(OC)c1 | 6.92 |
| Clc1ccccc1-c1nc2ccccc2c2nncn12 | 7.9 |
| COc1ccc(CNC(=S)NNC(=O)c2cc3ccccc3o2)cc1 | 8.92 |
| COc1ccc(CCC(=O)OCC(=O)Nc2c(C)n(C)n(-c3ccccc3)c2=O)cc1 | -3.51 |
| Cc1nnc(SCC(=O)N(C2CCCCC2)C2CCS(=O)(=O)C2)n1N (centres unmarked) | 14.5 |

| SMILES | hERG current change (%, negative = inhibition) at 1uM [%] |
| --- | --- |
| CCCS(=O)(=O)N1CCCC(C(=O)NCCc2cccc(C)c2)C1 (centres unmarked) | 14.6 |
| Cc1c(-n2c(=O)n(Cc3ccccc3)c(=O)c3[nH]cnc32)cccc1S(C)=O (centres unmarked) | 9.92 |
| Cc1ccc2[nH]c3c(c2c1)SC(C)(C)CC3=O | 14.6 |
| COc1ccc(N2CCN(C(=O)NC34CC5CC(CC(C5)C3)C4)CC2)cc1 | 12.7 |
| CCc1[nH]c(C)c(C(C)=O)c1C | 14.6 |
| O=C1c2cccc3cccc(c23)C(=O)N1OS(=O)(=O)c1ccccc1 | 13.2 |
| O=C(Nc1cccc(Oc2ccc(C(=O)O)c(C(=O)O)c2)c1)c1ccc(-c2ccccc2)cc1 | 0.678 |
| CC(Sc1nnc(CC(=O)Nc2ccccc2F)n1C)C(=O)Nc1nccs1 (centres unmarked) | 13.8 |
| CCOC(=O)c1sc(S(C)(=O)=O)c2c1CCc1conc1-2 | 14.6 |
| NC(=O)Cn1ccc(O)c(Cc2ccc(Cl)cc2Cl)c1=O | 13.5 |
| CCOC(=O)c1c(C)oc2c1c(C(c1ccncc1)N1CCOCC1)c(O)c1ccccc12 (centres unmarked) | 12.2 |
| Cc1ccc(CCNC(=O)CS(=O)Cc2nc(-c3ccccc3Cl)oc2C)cc1 (centres unmarked) | 12.3 |
| C/C(=N/NC(=O)c1ccc(Br)o1)c1ccc(C)o1 | 0.861 |
| O=C(NCc1cccnc1)C(=O)Nc1ccc([N+](=O)[O-])cc1 | 2.54 |
| O=C(OC(C(=O)NCc1cccs1)c1ccc(F)cc1)c1ccco1 (centres unmarked) | 12.4 |
| CC(C)C(=O)C1=Cc2cccc([N+](=O)[O-])c2OC1N1CCOCC1 (centres unmarked) | 5.69 |
| Cc1nn(CC(=O)N/N=C/c2cccs2)c(C)c1[N+](=O)[O-] | 10.4 |
| CC(C(=O)Nc1cccc(S(=O)(=O)N2CCOCC2)c1)N1CCN(c2ccc(F)cc2)CC1 (centres unmarked) | 4.54 |
| CCCN1CCN(CCCNC(=O)c2cc3c(=O)oc4ccc(C)cc4c3s2)CC1 | 5.67 |
| O=C(CCc1ccccc1)NNC(=O)c1ccccc1C(=O)O | 8.54 |
| CCN(CC)C(=O)CSc1nnc([C@H](Cc2c[nH]c3ccccc23)NC(=O)OC(C)(C)C)o1 | -14.7 |
| O=C(Cc1ccc(F)cc1)OCC(=O)N1CCN(S(=O)(=O)c2ccc(Cl)cc2)CC1 | -1.45 |
